Assay results from the supplement of paper PMC4967469.
By IC50 is meant the dose at which the fit gives 50% viability; where the fit passes the top or lowest dose, that dose stands as a limit. AUC, from the same fit, is the share of area under the viability curve across the 256-fold dose range; the more sensitive the line, the further below 1. For some of these results: Where the top dose is marked as inferred, it was calculated from the reported fits. For some of these results: An entry number marks a drug with two screens in the source, which often give different values.

Key:
Assay in all cases: Viability of human cancer cell lines after 72 h of drug (GDSC screen)
CMK = compound: Cc1ccc(-c2c(C(=O)CCl)n(CCCO)c3ncnc(N)c23)cc1 [CMK]; settings: top dose 4 µM; top dose inferred
Protocol: (§1)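 Human cancer cell lines in 384-well plates, medium with 10% serum, drug for 72 h over a 256-fold dose range (nine 2-fold or five 4-fold steps up to the top dose). Adherent lines were fixed and stained with the nucleic acid dye Syto60, suspension lines read with resazurin; signal relative to control wells, capped at 0 and 100%. One two-parameter sigmoid per drug and line, fitted in a mixed model over all curves with the slope shared within a line.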

Zibotentan = compound: COc1nc(C)cnc1NS(=O)(=O)c1cccnc1-c1ccc(-c2nnco2)cc1 [Zibotentan]; settings: top dose 20 µM; top dose inferred
Protocol: as §1

CP466722 = compound: COc1cc2ncnc(-n3nc(-c4ccccn4)nc3N)c2cc1OC [CP466722]; settings: top dose 16 µM; top dose inferred
Protocol: as §1

ABT-869 = compound: Cc1ccc(F)c(NC(=O)Nc2ccc(-c3cccc4[nH]nc(N)c34)cc2)c1 [ABT-869]; settings: top dose 1.024 µM; top dose inferred
Protocol: as §1

CHIR-99021 = compound: Cc1cnc(-c2cnc(NCCNc3ccc(C#N)cn3)nc2-c2ccc(Cl)cc2Cl)[nH]1 [CHIR-99021]; settings: top dose 2.56 µM; screen: GDSC drug entry 154
Protocol: as §1

GSK269962A = compound: CCn1c(-c2nonc2N)nc2cnc(Oc3cccc(NC(=O)c4ccc(OCCN5CCOCC5)cc4)c3)cc21 [GSK269962A]; settings: top dose 2.5 µM; screen: GDSC drug entry 127; top dose inferred
Protocol: as §1

QL-X-138 = compound: C=CC(=O)Nc1cc(-n2c(=O)ccc3cnc4ccc(-c5cn[nH]c5)cc4c32)ccc1C [QL-X-138]; settings: top dose 10.24 µM; top dose inferred
Protocol: as §1

MPS-1-IN-1 = compound: COc1cc(N2CCC(O)CC2)ccc1Nc1cc(Nc2ccccc2S(=O)(=O)C(C)C)c2cc[nH]c2n1 [MPS-1-IN-1]; settings: top dose 20 µM; top dose inferred
Protocol: as §1

Thapsigargin = compound: C/C=C(/C)C(=O)O[C@H]1C(C)=C2[C@H]([C@@H]1OC(=O)CCCCCCC)[C@@](C)(OC(C)=O)C[C@H](OC(=O)CCC)[C@@]1(O)[C@H]2OC(=O)[C@@]1(C)O [Thapsigargin]; settings: top dose 0.512 µM; top dose inferred
Protocol: as §1

Cell Line | AUC (CMK) | IC50 (CMK) [µM] | AUC (Zibotentan) | IC50 (Zibotentan) [µM] | AUC (CP466722) | IC50 (CP466722) [µM] | AUC (ABT-869) | IC50 (ABT-869) [µM] | AUC (CHIR-99021) | IC50 (CHIR-99021) [µM] | AUC (GSK269962A) | IC50 (GSK269962A) [µM] | AUC (QL-X-138) | IC50 (QL-X-138) [µM] | AUC (MPS-1-IN-1) | IC50 (MPS-1-IN-1) [µM] | AUC (Thapsigargin) | IC50 (Thapsigargin) [µM]
KP-N-RT-BM-1 (neuroblastoma, semi-adherent) | 0.733 | 1.44 |  |  |  |  |  |  |  |  |  |  |  |  |  |  |  | 
KP-N-YS (neuroblastoma, adherent) | 0.882 | > 4 | 0.982 | > 20 | 0.783 | 7.83 | 0.977 | > 1.02 | 0.975 | > 2.56 | 0.95 | > 2.5 | 0.585 | 1.13 | 0.675 | 4.15 | 0.312 | 0.00876
NCI-H128 (small cell lung carcinoma, suspension) | 0.843 | > 4 |  |  |  |  |  |  |  |  | 0.968 | > 2.5 |  |  |  |  |  | 
NCI-H748 (small cell lung carcinoma, suspension) | 0.876 | > 4 | 0.948 | > 20 | 0.76 | 7.11 | 0.972 | > 1.02 | 0.962 | > 2.56 | 0.975 | > 2.5 | 0.383 | 0.278 | 0.911 | > 20 | 0.527 | 0.0386
NCI-H2171 (small cell lung carcinoma, suspension) | 0.868 | 2.86 | 0.992 | > 20 | 0.82 | 7.67 | 0.977 | > 1.02 | 0.991 | > 2.56 | 0.762 | 0.785 | 0.552 | 0.868 | 0.943 | > 20 | 0.349 | 0.013
NCI-H2196 (small cell lung carcinoma, adherent) | 0.987 | > 4 | 0.981 | > 20 | 0.734 | 4.84 | 0.964 | > 1.02 | 0.987 | > 2.56 | 0.969 | > 2.5 | 0.596 | 1.19 | 0.951 | > 20 | 0.895 | > 0.512
NK-92MI (lymphoid neoplasm, suspension) | 0.793 | 1.68 |  |  | 0.772 | 5.74 |  |  | 0.986 | > 2.56 | 0.897 | > 2.5 |  |  |  |  | 0.323 | 0.0107
SCC-3 (B-cell lymphoma, suspension) | 0.8 | 1.35 | 0.995 | > 20 | 0.79 | 5.1 | 0.994 | > 1.02 | 0.996 | > 2.56 | 0.991 | > 2.5 | 0.575 | 0.973 | 0.463 | 1.02 | 0.55 | 0.0422
